# Data published in the supplement of paper PMC4166925.
# ± gives the standard deviation of the averaged measurements. Over roughly 33,000 sequences, “E-score (dimensionless, -0.5 to 0.5)” has its median near -0.049; the highest 2% begin near 0.37. The list shows a part of the results.
# System: T1, PmTbr T-box DNA-binding domain (GST fusion)
# T1 sequence: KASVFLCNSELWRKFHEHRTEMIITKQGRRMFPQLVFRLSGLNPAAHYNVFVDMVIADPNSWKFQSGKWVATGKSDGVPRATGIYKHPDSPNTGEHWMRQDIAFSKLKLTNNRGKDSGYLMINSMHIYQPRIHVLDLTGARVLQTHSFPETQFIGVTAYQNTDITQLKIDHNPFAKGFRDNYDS
# Experiment: PBM E-score of 8-mer (E-score (dimensionless, -0.5 to 0.5)); Tbr is Tbrain of the sea star Patiria miniata (Pm) or the sea urchin Strongylocentrotus purpuratus (Sp); higher = stronger binding preference; most listed sequences are background and not binding sites
# Conditions: the construct has about 5 more residues each side
# How it was run: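 Primer extension turned Universal Agilent oligonucleotide arrays double-stranded. They were incubated with 200 nM protein in PBS (pH 7.5); the protein was a GST-fused Tbr T-box DNA-binding domain expressed in BL21 E. coli at 20 °C and purified on glutathione. Every ungapped 8-mer was scored from the scanned, quantified probe intensities, and the Universal PBM Analysis Suite gave each an enrichment E-score averaged over duplicate arrays.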
row,Sequence,PBM E-score of 8-mer
1,GCTAAGCA,-0.0475 ± 0.039
2,ATATGGTA,-0.257 ± 0.065
3,AACGTAGT,-0.232 ± 0.055
4,CACATTGA,0.196 ± 0.045
5,CGTTGTAA,0.0165 ± 0.029
6,ACCCTGGC,0.142 ± 0.011
7,GTAAGATA,-0.0523 ± 0.029
8,TATCAAAA,-0.104 ± 0.051
9,GATCACAA,0.163 ± 0.045
10,ATATACAA,-0.14 ± 0.008
11,ACTACATC,0.0509 ± 0.015
12,CTCGTCAC,0.3943 ± 0.0029
13,GAAACGGC,-0.086 ± 0.049
14,CAACTTTA,0.115 ± 0.034
15,GCCCGAGA,-0.0545 ± 0.033
16,CCAAGCAC,-0.158 ± 0.02
17,TAGGTTAA,-0.216 ± 0.0052
18,CAACCGCC,-0.0203 ± 0.051
19,CGGTTCCC,-0.22 ± 0.012
20,CTCCAGAC,-0.0277 ± 0.017
21,GGGACAAA,-0.181 ± 0.045
22,CTTATGTC,-0.22 ± 0.015
23,TCCGTTAA,-0.118 ± 0.023
24,AAGCGCTT,0.0229 ± 0.02
25,CCGTATAC,-0.0953 ± 0.0049

row,Sequence,PBM E-score of 8-mer
1,CCGAGACA,-0.0936 ± 0.0089
2,ATCCGGTG,-0.0929 ± 0.065
3,CATGGCCC,-0.201 ± 0.0055
4,ACTATTCA,-0.08168 ± 9.9e-05
5,CTATAGCC,-0.148 ± 0.008
6,CGGTGCAC,-0.108 ± 0.037
7,CCGAAGGA,-0.248 ± 0.077
8,AGAGCTAC,-0.216 ± 0.015
9,ATTCAGAA,-0.313 ± 0.0071
10,CGGCACTC,0.0465 ± 0.024
11,CACGATCC,0.0308 ± 0.062
12,AGGGGCCC,-0.303 ± 0.0065
13,GCACAAGC,-0.0674 ± 0.032
14,CTAATTAG,0.0707 ± 0.025
15,TGATAGCA,0.267 ± 0.0091
16,CTGTCCGC,-0.212 ± 0.067
17,AAATGATA,-0.0199 ± 0.014
18,ATGTAAAT,-0.0522 ± 0.032
19,GACAACCC,0.117 ± 0.054
20,GACTTTCA,0.0599 ± 0.042
21,AGCGGATG,-0.173 ± 0.035
22,ATACACGG,-0.128 ± 0.016
23,CGCATACG,-0.0175 ± 0.005
24,CCTTAAGG,-0.124 ± 0.0032
25,GGGTTGAA,-0.0332 ± 0.073

row,Sequence,PBM E-score of 8-mer
1,ATCAGTCC,-0.155 ± 0.078
2,ACCTGCGT,0.112 ± 0.063
3,CGCTAGGA,0.17 ± 0.031
4,GATGGGGA,0.0198 ± 0.033
5,GAAGTAGC,0.0968 ± 0.071
6,AACCACAT,-0.231 ± 0.022
7,GTGGCCAA,0.018 ± 0.065
8,GGCCTTTA,-0.228 ± 0.024
9,CAAAGCCG,0.0505 ± 0.036
10,GGGAATCA,-0.0147 ± 0.043
11,TAAAGGCA,-0.254 ± 0.031
12,ACAAAAGT,0.0953 ± 0.078
13,AAGGGACG,-0.16 ± 0.015
14,CGAGTAGA,-0.208 ± 0.0038
15,ACAAAATC,0.0755 ± 0.12
16,ACTTGATG,0.0241 ± 0.018
17,GCACATAA,0.236 ± 0.024
18,CAGCGCCG,0.11 ± 0.041
19,CCCCTTCG,-0.126 ± 0.029
20,CGGAGAAA,0.0604 ± 0.023
21,CAGCAGAC,0.0235 ± 0.024
22,CCAGGTAC,-0.105 ± 0.1
23,AACCTGCC,-0.0169 ± 0.035
24,ACGTATCA,0.00869 ± 0.048
25,CCGTGTCC,-0.0796 ± 0.014

row,Sequence,PBM E-score of 8-mer
1,AACTAATA,-0.0828 ± 0.024
2,CCAGGTAA,-0.00588 ± 0.029
3,TAGAGTAA,-0.0497 ± 0.032
4,GTTGGCAA,0.276 ± 0.03
5,AGATCAAG,-0.285 ± 0.047
6,AAGGTTCG,-0.0528 ± 0.047
7,GCCTAACC,-0.288 ± 0.061
8,TATGTGAA,0.11 ± 0.1
9,CAAAGTCC,-0.084 ± 0.003
10,AAGAGTGC,0.0437 ± 0.026
11,ACAAGTAT,0.112 ± 0.028
12,TCCCGAAA,-0.153 ± 0.024
13,AATCGCCA,0.166 ± 0.016
14,AGTGGTAT,0.056 ± 0.014
15,TCAAGGAA,-0.191 ± 0.017
16,ATGCTCCG,-0.0913 ± 0.00038
17,ACCACCCA,-0.122 ± 0.11
18,AGACTTAC,-0.184 ± 0.053
19,AATTTGGT,-0.0576 ± 0.041
20,ACAGGTAA,0.0959 ± 0.047
21,AATGGATG,-0.0722 ± 0.11
22,AATGTTTC,-0.221 ± 0.017
23,ACACAACA,0.21 ± 0.01
24,GTTCTGGA,-0.117 ± 0.11
25,GATATAAC,0.115 ± 0.0035

row,Sequence,PBM E-score of 8-mer
1,GTGGGGGA,0.0777 ± 0.08
2,CTTCCCAA,0.157 ± 0.03
3,ATCACCCG,0.194 ± 0.02
4,CGATTGGC,0.0475 ± 0.026
5,CTCCAGCC,-0.247 ± 0.00034
6,CTCGTCCC,-0.303 ± 0.016
7,ATTATTTG,-0.0902 ± 0.057
8,ACCTTTCG,0.171 ± 0.008
9,GAGGCTGA,-0.152 ± 0.01
10,ATATCTCA,0.0934 ± 0.046
11,GGCGAGTA,-0.019 ± 0.013
12,GAGTCCGA,-0.228 ± 0.032
13,GCCTAAGA,-0.135 ± 0.042
14,GTGACTAA,0.224 ± 0.02
15,ACCCACGA,0.042 ± 0.12
16,TACGAGTA,-0.183 ± 0.0048
17,TCTCCTCA,-0.0737 ± 0.037
18,AAGTAAGC,0.0712 ± 0.06
19,CCGAGGTC,-0.0467 ± 0.058
20,ATCCTTAA,-0.266 ± 0.031
21,GGAGTCTA,-0.318 ± 0.014
22,TTGACCAA,-0.127 ± 0.099
23,ACAACCTA,0.0189 ± 0.02
24,ACATGGCC,-0.15 ± 0.062
25,CGAAGGAG,-0.0485 ± 0.017

row,Sequence,PBM E-score of 8-mer
1,ACGAGTCG,0.143 ± 0.015
2,CGTAACAA,0.00875 ± 0.0017
3,ATAAACTA,-0.107 ± 0.0083
4,ACGTCCGC,0.142 ± 0.043
5,ACTCGAAA,-0.00348 ± 0.018
6,TACATCTA,-0.0798 ± 0.087
7,GAGAGACC,-0.119 ± 0.04
8,ACAACCGT,0.102 ± 0.02
9,GTCTCTGA,-0.238 ± 0.017
10,CGCTTTAA,-0.165 ± 0.076
11,AATGTCAC,0.329 ± 0.034
12,ATTCTGTC,0.0857 ± 0.08
13,ACATAGCT,-0.0291 ± 0.082
14,GTTGTCAA,0.3528 ± 0.0033
15,CCCGGTCA,-0.0613 ± 0.056
16,GCACATGA,0.0847 ± 0.099
17,GGAATACC,-0.15 ± 0.066
18,AGAAAACC,-0.00752 ± 0.017
19,GCTATTAA,0.158 ± 0.051
20,TCACTTAA,0.241 ± 0.022
21,ATATTGAC,0.103 ± 0.015
22,AAGCCCCT,-0.25 ± 0.033
23,ACCATTAG,0.0378 ± 0.1
24,GTAATACA,-0.163 ± 0.0071
25,CGACGTTA,-0.0414 ± 0.035

row,Sequence,PBM E-score of 8-mer
1,ACTACGGC,0.0176 ± 0.0086
2,CAAGCGGC,0.03 ± 0.015
3,GACGCGGC,0.0886 ± 0.056
4,ACTTGACA,0.349 ± 0.0048
5,CTCTTTAC,-0.09 ± 0.098
6,CACTCTTA,0.193 ± 0.057
7,CTTGAAAC,0.0357 ± 0.059
8,GCCCGGGC,-0.124 ± 0.051
9,GCGTGTCA,0.276 ± 0.034
10,ACTCCAGA,-0.0523 ± 0.079
11,CTTCGACA,0.164 ± 0.067
12,AGAACGAT,-0.27 ± 0.068
13,ACTAGTAG,0.059 ± 0.1
14,ATGCGCAC,-0.0585 ± 0.018
15,CGGAATAC,0.00666 ± 0.033
16,ATCGTACA,-0.0228 ± 0.034
17,AGGTCTCA,-0.0961 ± 0.054
18,CATCCTAG,-0.0222 ± 0.02
19,AGGAAGAG,-0.37 ± 0.021
20,ACACTCTA,0.279 ± 0.016
21,ACGGAGAG,-0.13 ± 0.058
22,TCCTCACA,0.3327 ± 0.0011
